In article PMC7795355:
Results are given in words; binding and its absence hold for the method and conditions named. Binding seen in cells or lysates may run through a third protein. Some results given as binding are weak or reduced against the parent protein; the word gives no strength. Tags and fused reporters may be left off the sequences shown.

T1: OsMre11 (Meiotic recombination 11 of rice), BiFC fusion (Oryza sativa (rice)) (UniProt Q7XQR9)
T1 sequence: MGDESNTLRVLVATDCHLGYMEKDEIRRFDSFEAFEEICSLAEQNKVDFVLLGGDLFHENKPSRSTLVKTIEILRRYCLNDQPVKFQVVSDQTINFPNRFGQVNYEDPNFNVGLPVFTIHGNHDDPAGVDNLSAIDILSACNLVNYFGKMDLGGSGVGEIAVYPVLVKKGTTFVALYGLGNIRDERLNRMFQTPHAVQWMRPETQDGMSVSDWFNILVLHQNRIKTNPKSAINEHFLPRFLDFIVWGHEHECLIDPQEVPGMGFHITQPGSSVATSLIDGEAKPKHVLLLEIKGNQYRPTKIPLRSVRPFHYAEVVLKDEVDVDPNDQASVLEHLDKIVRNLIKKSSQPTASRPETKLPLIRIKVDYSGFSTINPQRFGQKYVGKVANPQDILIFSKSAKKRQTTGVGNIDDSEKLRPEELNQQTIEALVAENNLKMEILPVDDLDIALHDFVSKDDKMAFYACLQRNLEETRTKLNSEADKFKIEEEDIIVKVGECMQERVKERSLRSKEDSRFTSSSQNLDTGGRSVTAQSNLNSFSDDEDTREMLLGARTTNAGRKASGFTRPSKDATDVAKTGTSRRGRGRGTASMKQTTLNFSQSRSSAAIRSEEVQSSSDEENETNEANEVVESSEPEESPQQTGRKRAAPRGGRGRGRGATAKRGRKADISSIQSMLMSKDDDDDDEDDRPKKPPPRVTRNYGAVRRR

T2: OsNbs1 (Nijmegen breakage syndrome 1 of rice), BiFC fusion (Oryza sativa (rice)) (UniProt Q7XD82)
T2 sequence: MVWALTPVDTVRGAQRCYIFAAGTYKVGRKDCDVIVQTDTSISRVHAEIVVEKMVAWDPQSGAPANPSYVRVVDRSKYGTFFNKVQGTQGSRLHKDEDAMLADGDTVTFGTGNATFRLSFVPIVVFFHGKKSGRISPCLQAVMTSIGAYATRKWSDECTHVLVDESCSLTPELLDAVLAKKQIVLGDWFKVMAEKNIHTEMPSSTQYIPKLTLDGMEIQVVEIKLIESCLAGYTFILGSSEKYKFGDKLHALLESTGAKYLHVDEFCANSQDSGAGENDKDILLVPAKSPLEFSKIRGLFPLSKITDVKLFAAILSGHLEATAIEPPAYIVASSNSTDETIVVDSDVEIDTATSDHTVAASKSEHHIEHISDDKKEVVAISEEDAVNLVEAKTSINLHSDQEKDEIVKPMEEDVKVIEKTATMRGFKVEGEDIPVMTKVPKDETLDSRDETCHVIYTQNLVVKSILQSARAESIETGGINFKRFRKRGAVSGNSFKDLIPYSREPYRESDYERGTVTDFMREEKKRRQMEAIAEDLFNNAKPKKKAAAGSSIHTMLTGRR

T3: OsNbs1-3×Myc (Oryza sativa (rice)) (UniProt Q7XD82)
T3 sequence: T2 sequence

B1: OsMre11 (Meiotic recombination 11 of rice), BiFC fusion (protein, UniProt Q7XQR9 1-705)
chain: T1 sequence
B2: OsMre11-GFP (protein, UniProt Q7XQR9 1-705)
chain: T1 sequence
B3: OsNbs1 (Nijmegen breakage syndrome 1 of rice), BiFC fusion (protein, UniProt Q7XD82 1-560)
chain: T2 sequence

Experiments:
[1] = target: T1, OsMre11 (Meiotic recombination 11 of rice), BiFC fusion (Oryza sativa (rice)); test: split reporter; BiFC with split YFP (YN and YC fusions) transiently co-expressed in tobacco (Nicotiana benthamiana) leaf epidermis cells; fluorescence observed about 36 h later
[2] = target: T2, OsNbs1 (Nijmegen breakage syndrome 1 of rice), BiFC fusion (Oryza sativa (rice)); test: as above
[3] = target: T3, OsNbs1-3×Myc (Oryza sativa (rice)); test: co-IP; two of the fusion proteins transiently co-expressed in tobacco leaf cells; immunoprecipitated with anti-Flag or anti-Myc antibody, blotted with anti-GFP, anti-Flag, anti-Myc; IgG as negative control
[4] = target: T3, OsNbs1-3×Myc (Oryza sativa (rice)); test: co-IP; OsMre11-GFP, OsRad50-3×Flag and OsNbs1-3×Myc, all three transiently co-expressed in tobacco leaf cells; immunoprecipitated with anti-Myc antibody, blotted with anti-Myc, anti-GFP and anti-Flag; IgG as negative control

Binder	binding [1]	binding [2]	binding [3]	binding [4]
B1	binds	binds	–	–
B2	–	–	binds	binds
B3	binds	no binding	–	–
